Measurements taken from PubChem BioAssay AID624296 (National Center for Advancing Translational Sciences (NCATS), 2012).
Out of some 350,000 compounds screened, about 9,900 (2.8%) were called active. Inconclusive results, whose numbers are uncertain, are shown with a selection of clear calls. Calls come from the whole dose curve; as a rule, active = well fitted activation curve with a large enough effect; inconclusive = small, poorly fitted or top-dose-only effect; inactive = no such curve, though single readings can be large or run the other way. Potencies of inconclusive entries are left out as doubtful fits.

test: A quantitative high throughput screen for small molecules that induce DNA re-replication in MCF 10a normal breast cells.; note: nearly all actives have a fitted effect of over 50% in size; for activity, positive = re-replication: % of control where 0% means no effect; details: MCF 10A DNA re-replication, Hoechst nuclear intensity, 48 h; activity, positive = re-replication: at 46.1 µM (top of the series)
Potency is the fitted concentration of half-maximal effect; tags give direction and shape of the fitted curve.

SMILES | activity, positive = re-replication | Potency
CCCN(CC(=O)Nc1ccc(F)c(F)c1F)C(=O)C1CC(=O)N(Cc2ccccc2)C1 (stereo not drawn) | inactive: -0.68% | 
CCS(=O)(=O)N1Cc2ccccc2CC1C(=O)Nc1nc2ccc(C)cc2s1 (stereo not drawn) | inactive: 9.28% | 
Cc1ccc(S(=O)(=O)n2nc(OC(=O)c3ccccc3C)cc2N)cc1 |  | inconclusive [activator, single point]
COc1cc2c(-c3ccc(O)cc3)nc3c(c(C)nn3-c3ccccc3)c2cc1OC |  | active: 14.6 µM
CS/C(=N\S(=O)(=O)c1cccs1)Nc1cccc(Cl)c1C |  | inconclusive [activator, single point]
CCOC(=O)CCNC(C(=O)OCC)c1ccccc1 (stereo not drawn) | inactive: 7.01% | 
COc1ccc2cc3c(N)c(C(=O)NCc4ccco4)sc3nc2c1 |  | inconclusive [activator, single point]
O=C(CCN1C(=O)/C(=C/c2ccco2)SC1=S)Nc1ccc(O)cc1C(=O)O | inactive: -0.984% | 
CC(C)(C)OC(=O)CC1(C#N)c2ccccc2C(Br)=CN1C(=O)c1ccccc1 (stereo not drawn) |  | inconclusive [activator, full curve, poor fit]
COc1cccc(/C=C2\SC(=S)N(CCCC(=O)N3CCCCC3CCO)C2=O)c1 (stereo not drawn) |  | inconclusive [activator, single point]
Oc1ccc(CCc2n[nH]c(=S)n2-c2ccc(F)cc2)cc1 |  | inconclusive [activator, single point]
O=C(NCc1cccnc1)/C(=C\c1ccc(-c2ccc(Cl)c(Cl)c2)o1)S(=O)(=O)c1ccccc1 |  | active: 6.51 µM
O=C(Nc1nnc(S(=O)(=O)N2CCCCCC2)s1)c1ccccc1Cl | inactive: 3.53% | 
COc1ccc(Nc2nc(N3CCCC3)nc3ccccc23)c(OC)c1 |  | active: 18.4 µM
Cc1ccc(C(=O)CNc2cccc(Cl)c2)cc1 |  | inconclusive [activator, partial curve, poor fit]
CCN(CC)C(=O)Oc1ccc2ccccc2c1Br |  | inconclusive [activator, partial curve, poor fit]
Nc1nc2ccccc2n1CCOc1ccccc1Cl |  | inconclusive [activator, single point]
CCOC(=O)CC1COCCN1Cc1cn(C)nc1-c1ccccc1F (stereo not drawn) | inactive: -0.837% | 
CC(=O)COc1cccc2ccc(/C=C/c3ccc(Br)s3)nc12 |  | active: 18.4 µM
O=C1CC(/C=C/c2cccnc2)=Nc2ccccc2N1 |  | inconclusive [activator, single point]
O=c1c2cc(F)ccc2[nH]c(=S)n1Cc1ccc(F)cc1 |  | inconclusive [activator, partial curve, poor fit]
CCc1nc2ccc(C(=O)NCc3ccco3)cc2nc1CC | inactive: 0.322% | 
COc1ccccc1-c1c(C)nn2c(N3CCC4(CC3)OCCO4)cc(C)nc12 |  | inconclusive [activator, single point]
CCCCN(CC)Cc1c(O)ccc2c3c(c(=O)oc12)CCC3 | inactive: 18.1% | 

SMILES | activity, positive = re-replication | Potency
COc1ccc(Nc2nc(NCCN3CCOCC3)nc(Nc3ccc(OC)cc3)n2)cc1 | inactive: 8.97% | 
O=C1C(=O)c2ccccc2C(O)=C1CC=C(Cl)Cl | inactive: -1.01% | 
Fc1ccccc1CNc1ccc(Cl)c(Cl)c1 |  | inconclusive [activator, single point]
COc1ccc(CNC(=O)COC(=O)c2ccc(OCC3CCCO3)cc2)cc1 (stereo not drawn) | inactive: 8.09% | 
S=P(N1CC1)(N1CC1)N1CC1 |  | inconclusive [activator, single point]
CCN1C(=O)c2cccc3c(S(=O)(=O)Nc4ccncc4)ccc1c23 | inactive: 0.74% | 
COc1ccc(NC(=O)c2sc3nc(-c4cccnc4)ccc3c2N)cc1 |  | inconclusive [activator, partial curve, poor fit]
COc1ccc(NC(=O)c2ccc3ccccc3n2)cc1S(=O)(=O)N1CCCCC1 |  | inconclusive [activator, partial curve, poor fit]
CCOC(=O)c1cc2c(=O)n3ccccc3nc2n(CC(C)C)c1=NC(=O)c1ccco1 |  | inconclusive [activator, single point]
CCC(CC)C(=O)Nc1nnc(CCc2ccccc2)s1 | inactive: 1.12% | 
Cc1cc(Sc2nnc(/N=C/N(C)C)s2)c2ccccc2n1 |  | active: 9.2 µM
CCC(C(=O)Nc1cccc(C(F)(F)F)c1)c1ccccc1 (stereo not drawn) |  | inconclusive [activator, single point]
COc1ccccc1N1CCN(c2cc(=O)n(-c3ccccc3Cl)c(=O)[nH]2)CC1 |  | inconclusive [activator, single point]
CCOc1ccccc1OCC(=O)NCc1ccco1 |  | active: 16.4 µM
COc1cc(SC)ccc1C(=O)Nc1nc2ccccc2[nH]1 | inactive: 10% | 
CCN(c1ccccc1)S(=O)(=O)c1ccc(OC)c(NC(=O)Cc2ccc(F)cc2)c1 |  | inconclusive [activator, single point]
COc1ccc(NC(=O)Nc2ccccc2F)c(C)c1 |  | inconclusive [activator, single point]
C=C(C)[C@@H]1CCC2(C(=O)O)CC[C@]3(C)[C@H](CC[C@@H]4[C@@]5(C)CCC(=O)C(C)(C)[C@@H]5CC[C@]43C)[C@@H]12 (stereo partly drawn) |  | inconclusive [activator, full curve, poor fit]
Cc1ccc(S(=O)(=O)/N=C(\N)c2ccc(Cl)cc2)cc1 | inactive: 9.75% | 
O=C(c1ccccn1)C1CCCN(Cc2nc(Cc3cccc(F)c3)no2)C1 (stereo not drawn) | inactive: 9.94% | 
Cc1ccccc1[C@@]1(C)ON(c2ccccc2C(F)(F)F)C1=O |  | inconclusive [activator, partial curve, poor fit]
CC(C)c1ccc(-c2nc3ccccc3s2)cc1 | inactive: 22.5% | 
CCCn1cc(CN2CCC(Cc3ccccc3)(C(=O)OCC)CC2)c(C)n1 |  | inconclusive [activator, partial curve]
CCCCn1nnc(NC(=O)c2ccc(-c3cccc(Cl)c3)o2)n1 |  | inconclusive [activator, single point]
